PubChem BioAssay AID686971 (National Center for Advancing Translational Sciences (NCATS), 2013)
The whole screen tested about 360,000 compounds, of which about 7,500 (2.1%) were called active. The inconclusive results got no clear call from the source; some entries with a clear call stand among them for comparison. Calls follow the shape of the dose curve; as a rule, active = well fitted cell-killing curve with a large enough effect; inconclusive = small, poorly fitted or top-dose-only effect, or effect the other way, or another doubt; inactive = no such curve, though single readings can be large or run the other way. No potency is given beside an inconclusive call; the fits are too rough.
Potency is read from the fitted curve at half-maximal effect; tags tell the direction and shape of the fitted curve.

Test: qHTS for induction of synthetic lethality in tumor cells producing 2HG: qHTS for the HT-1080-IDH1KD cell line;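 as to activity, negative = toxicity: 0% = DMSO wells and -100% = cell-free medium wells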
Conditions: HT-1080 IDH1 knockdown viability, ATP luminescence, 48 h; activity, negative = toxicity: at 46.1 µM (top of the series) unless noted
Method in brief: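 Knockdown cells (IDH1KD HT-1080) received compounds 2 h after plating at 750 cells/well and were kept 48 h at 37 °C in 5% FBS RPMI. A CellTiter-Glo luminescence read gave % activity for curve fitting.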
In the case of COc1ccc(CN(C(=O)c2ccc(-c3ccccc3)[nH]2)C(C(=O)NCC2CCCO2)c2ccc(C)o2)cc1 (stereo not drawn), the Potency is reported as inconclusive [cytotoxic, partial curve].
In the case of O=[N+]([O-])c1cc(Cl)c2cccnc2c1O, the Potency is reported as inconclusive [cytotoxic, single point].
With COc1ccc(-c2cn(CCO)c(-c3ccncc3)n2)cc1 the Potency was “inactive”.
With CCOc1ccc(NC(=O)c2ccc(CN3CCc4ccccc4C3)cc2)cc1 the Potency was inconclusive [cytotoxic, full curve, poor fit].
For CCOC(=O)c1c(C)oc2c(F)c(F)c(F)c(F)c2c1=O, the Potency was inconclusive [cytotoxic, single point].
For O=[N+]([O-])c1ccc(N2CCOCC2)cc1NC(c1ccccc1)c1ccccc1, the Potency was “inactive”.
In the case of O=C(Nc1ccc(S(=O)(=O)Nc2ccc(F)cc2)cc1)c1ccc(CN2CCOCC2)cc1, the activity, negative = toxicity is reported as inconclusive: -32.6% [cytotoxic].
With Cc1cc(C)c(NC(=O)CSc2nnc(-c3ccncc3)n2Cc2ccco2)c(C)c1 the Potency was inconclusive [rising, full curve].
In the case of COc1c2c(c(OC)c3c1c(=O)c1ccccc1n3C)OCO2, the Potency is reported as “inactive”.
In the case of O=C(Nc1nnc(C(F)(F)F)s1)c1ccc(Br)s1, the Potency is reported as inconclusive [cytotoxic, partial curve].
With COc1ccc(C(=O)C2CCCN(Cc3cccn3-c3ccc(Cl)cn3)C2)c(OC)c1 (stereo not drawn) the Potency was active: 18.4 µM.
In the case of CCN(CC)CCCN1CC(O)=C(c2nc3ccccc3s2)C1=N, the Potency is reported as inconclusive [cytotoxic, single point].
In the case of Cc1ccc(/C=C2\SC(=S)N(CCCC(=O)NC3CCCC3)C2=O)cc1, the Potency is reported as “inactive”.
With O=S(=O)(c1ccccc1)N1CCC(n2cnc3ccccc32)CC1 the Potency was “inactive”.
With COc1cc(/C=C/c2ccc3c(Br)cc(Br)c(O)c3n2)ccc1O the Potency was inconclusive [cytotoxic, partial curve].
In the case of Cn1cnc([N+](=O)[O-])c1S(=O)(=O)Oc1ccccc1, the Potency is reported as active: 23.1 µM.
For Cc1ccc2nc(SCC(=O)Nc3cccc(S(=O)(=O)NC4=NCCCCC4)c3)[nH]c2c1, the Potency was inconclusive [cytotoxic, partial curve].
With O=C(CC(=O)NCc1ccc(Cl)cc1)NCc1ccccc1 the Potency was “inactive”.
With CCc1ccccc1NC(=O)/C(=C/c1ccccc1)c1ccccc1 the Potency was inconclusive [cytotoxic, single point].
With COc1ccc(OC)c(Nc2cc(-c3ccccc3)nc(N)n2)c1 the Potency was active: 1.46 µM.
In the case of Cn1c(N)c(C(=O)CSc2nc(C3CC3)n(-c3ccccc3)n2)c(=O)n(C)c1=O, the Potency is reported as “inactive”.
With O=S(=O)(NCC(c1ccc2c(c1)OCO2)N1CCOCC1)c1ccccc1 (stereo not drawn) the Potency was “inactive”.
With CCOc1ccc(CN(C)C(=O)CN2C(=O)NC(c3ccccc3)(c3ccccc3)C2=O)cc1 the Potency was inconclusive [cytotoxic, single point].
In the case of CCn1c2ccccc2c2cc(NC(=O)Cc3ccc(S(=O)(=O)N4CCOCC4)s3)ccc21, the Potency is reported as inconclusive [cytotoxic, single point].
In the case of CCN(Cc1nc2ccccc2c(=O)[nH]1)C(=O)COc1ccccc1-c1ccccc1, the Potency is reported as inconclusive [cytotoxic, single point].
With Cc1cccc(-n2ccnc2CN2CCC(CO)(Cc3ccccc3)CC2)c1 the Potency was “inactive”.
With CCc1nnc(NC(=O)c2ccc(S(=O)(=O)N(CC(C)C)CC(C)C)cc2)o1 the Potency was inconclusive [cytotoxic, partial curve].
In the case of CCn1cc(S(=O)(=O)Nc2cc(C(=O)OC)ccc2C)cn1, the Potency is reported as inconclusive [cytotoxic, single point].
In the case of CC(C)c1ccc(NC(=O)Nc2nc(C(N)CCc3ccccc3)cs2)cc1 (stereo not drawn), the Potency is reported as active: 13 µM.
In the case of CCCCNc1nc(-c2ccccc2)c(C(=O)OCC)cc1C#N, the Potency is reported as inconclusive [cytotoxic, single point].
For CN(C)c1cccc(NC(=O)C2(C)CC2(Cl)Cl)c1 (stereo not drawn), the Potency was “inactive”.
In the case of COc1ccccc1CNc1nc(NCc2ccc(NC(C)=O)cc2)c2sccc2n1, the Potency is reported as inconclusive [cytotoxic, single point].
With CCN(CC)S(=O)(=O)c1ccc(N2CCN(C)CC2)c(NC(=O)Nc2ccc(C)cc2)c1 the Potency was active: 20.6 µM.
For Cc1nnc(NC(=O)c2ccc(S(=O)(=O)N3CCCCC3C)cc2)o1 (stereo not drawn), the Potency was “inactive”.
With CC1=C(C(=O)OCc2ccccc2)C(c2ccc(-c3ccccc3)cc2)NC(=O)N1CCCCCC(=O)O (stereo not drawn) the Potency was “inactive”.
In the case of Cc1ccc(/C=C(\C#N)C(=O)N2CCCC2)c(C)c1, the Potency is reported as inconclusive [cytotoxic, single point].
With Cn1ccc2c(N3CCCCCC3)cc3c(c21)C1CCC3O1 (stereo not drawn) the Potency was inconclusive [cytotoxic, single point].
For CNC(=S)N/N=C/c1ccc(C(C)C)cc1, the Potency was inconclusive [cytotoxic, single point].
With O=c1c(S(=O)(=O)c2ccc(Cl)cc2)cn(Cc2ccccc2)c2ccc(F)cc12 the Potency was inconclusive [cytotoxic, single point].
With CC1(C)NC(=O)N(CCOCCOc2ccc3ccccc3c2Br)C1=O the Potency was inconclusive [cytotoxic, single point].
In the case of Cc1[nH]c2ccccc2c1C(=O)CN1CC(C)CC(C)C1 (stereo not drawn), the Potency is reported as active: 18.4 µM.
In the case of CCn1c(N2CCN(S(=O)(=O)c3ccc(OC)cc3)CC2)nc2ccccc21, the Potency is reported as inconclusive [cytotoxic, single point].
With CCOC(=O)c1ccc(NC(=O)C2(c3ccc(Cl)cc3)CCCC2)cc1 the Potency was “inactive”.
With CC1CCN(CCCOc2ccc(OCc3ccccc3)cc2)CC1 the Potency was inconclusive [cytotoxic, single point].
For CN(CC(=O)O)c1ccc(C(F)(F)F)cc1[N+](=O)[O-], the Potency was inconclusive [rising, single point].
With Cc1cccc(CNC(=O)Nc2nnc([C@H]3C[C@H](O)[C@@H](CO)O3)s2)c1 the Potency was inconclusive [rising, single point].
With COc1cc(/C=C2\C(=O)NN(c3ccc(C)cc3)C2=O)cc([N+](=O)[O-])c1O the Potency was inconclusive [cytotoxic, single point].
For CCN(CC)c1cc(C)c(C#N)c2nc3ccccc3n12, the Potency was “inactive”.
For COC(=O)c1sc(NC(=O)COc2ccc(C)cc2)nc1C, the Potency was “inactive”.
With Cc1ccc(-c2csc(NC(=O)c3cccc(C)c3)c2C(=O)O)cc1 the activity, negative = toxicity was inconclusive: -30% [cytotoxic].
For Nc1nonc1-n1nnc(C(=O)N/N=C/c2ccc(O)cc2)c1COc1ccc(F)cc1, the Potency was inconclusive [cytotoxic, single point].
For Cn1nc(C(F)(F)F)c(-c2ccc(F)cc2)c1NC(=O)c1ccco1, the Potency was “inactive”.
For COCCCNc1nc2c(-c3ccc(C)cc3)nnn2c2ccccc12, the Potency was “inactive”.
In the case of Cc1cccc(Oc2cc(NC(=O)c3ccccc3)cc([N+](=O)[O-])c2)c1, the Potency is reported as inconclusive [cytotoxic, partial curve].
For O=C(CNc1cccc2ccccc12)N/N=C/c1ccc[nH]1, the Potency was inconclusive [cytotoxic, full curve, poor fit].
In the case of Cc1cc(N2CCN(Cc3cn(C)nc3-c3ccccc3F)CC2)cc(C)n1, the Potency is reported as inconclusive [cytotoxic, full curve].
In the case of CN(C)CCn1c2c(c(SCC(=O)Nc3ccc4c(c3)OCCO4)nc1=O)CCCC2, the Potency is reported as “inactive”.
For CCS(=O)(=O)c1ncc(Cl)c(C(=O)Nc2ccc(S(=O)(=O)N3CCCC(C)C3)cc2)n1 (stereo not drawn), the Potency was active: 4.61 µM.
With CCOC(=O)c1c(NC(=O)C2C3C=CC(C3)C2C(=O)O)sc2c1CCC(CC)C2 (stereo not drawn) the Potency was inconclusive [cytotoxic, single point].
For CCN(CC)C(=O)N1c2ccccc2C=Cc2ccccc21, the Potency was inconclusive [cytotoxic, partial curve].
In the case of Nc1c(NCCN2CCOCC2)c2ccccc2oc1=O, the Potency is reported as “inactive”.
With Cc1nc(SCC(=O)Nc2nccs2)c(C#N)c(C)c1C the Potency was inconclusive [cytotoxic, single point].
In the case of Cc1cc(-c2csc(Nc3ccccn3)n2)ccc1F, the Potency is reported as inconclusive [cytotoxic, single point].
For Cc1nc([N+](=O)[O-])cn1CC(=O)c1ccc(Br)cc1, the Potency was “inactive”.
With O=C(Nc1ccc(CN2CCCCC2)cc1)c1cc(Br)ccc1Cl the Potency was inconclusive [cytotoxic, single point].
In the case of O=C(N/N=C/c1cc(Cl)ccc1O)c1ccncc1, the Potency is reported as active: 4.11 µM.
In the case of O=C(N/N=C1\CCCc2ccccc21)c1ccc([N+](=O)[O-])cc1, the Potency is reported as inconclusive [cytotoxic, single point].
In the case of Cc1c(C(=O)NCc2ccc(Cl)c(Cl)c2)sc(=O)n1Cc1ccccc1F, the Potency is reported as inconclusive [cytotoxic, single point].
With CCC(C)(C)NC(=O)CN(Cc1ccc(F)cc1)C(=O)CCC(=O)Nc1ccccn1 the Potency was “inactive”.
With CN(C)CCCNCC(=O)c1c(-c2ccccc2)n(C)c2ccccc12 the Potency was inconclusive [cytotoxic, single point].
With COC(=O)[C@@]12C[C@@H](CC(=O)N3CCCCC3)C(=O)N(Cc3cccc4ccccc34)C1=CCC(C)(C)C2 the Potency was inconclusive [cytotoxic, single point].
In the case of CCOC(=O)c1nc(S(C)(=O)=O)ncc1Cl, the Potency is reported as active: 6.31 µM.
For COc1ccc2[nH]c3c(N4CCc5ccccc5C4)ncnc3c2c1, the Potency was active: 10.3 µM.
